# The other results are listed elsewhere or left out. The data describe in vitro nicking of single-stranded DNA by Rep domains for 1 h at 37 °C with 3 µM enzyme; only the middle of the 90-letter strands is printed. The score is log2 (uncut reads / reads without enzyme); more negative means more cut, near 0 not cut, and no call is made. Reads are scaled to the total; where an enzyme cuts many sequences, the uncut ones exceed 0.
# Tests used:
# Assay in all cases: uncleaved DNA left, log2 of reads against the no-enzyme library (log2 ratio); higher = less cleavage (more negative = more Rep cleavage of the k-mer); sequences stand for … in CTCGTCCG…ACCGGAGA
# [1] = test system: T1, Rep nickase domain of Muscovy duck circovirus
# T1 sequence (residues 1-111, tag not shown): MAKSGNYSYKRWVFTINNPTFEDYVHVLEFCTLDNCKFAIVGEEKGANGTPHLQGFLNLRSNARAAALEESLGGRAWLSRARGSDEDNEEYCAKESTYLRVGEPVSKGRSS
# Description: (§1)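 A pool of 90-nt single-stranded DNAs with seven random bases just before the constant AC of the nick site (name = the seven bases) was cut by 3 µM recombinant His6-SUMO-tagged Rep nickase domain (300 nM DNA, 50 mM HEPES pH 8.0, 50 mM NaCl, 1 mM MnCl2, 1 h, 37 °C, three replicates). Uncut DNA was amplified and sequenced.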
# [2] = test system: T2, Rep nickase domain of banana bunchy top virus
# T2 sequence (residues 1-94, tag not shown): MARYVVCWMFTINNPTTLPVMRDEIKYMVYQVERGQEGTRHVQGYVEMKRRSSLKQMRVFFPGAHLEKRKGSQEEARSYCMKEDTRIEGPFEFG
# Description: as §1
# [3] = test system: T3, Rep nickase domain of cabbage leaf curl virus
# T3 sequence (residues 1-116, tag not shown): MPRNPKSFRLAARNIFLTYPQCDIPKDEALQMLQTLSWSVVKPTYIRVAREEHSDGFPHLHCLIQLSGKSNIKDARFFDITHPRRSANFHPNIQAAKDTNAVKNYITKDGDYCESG
# Description: as §1
# [4] = test system: T4, Rep nickase domain of chickpea chlorotic dwarf virus
# T4 sequence (residues 1-124, tag not shown): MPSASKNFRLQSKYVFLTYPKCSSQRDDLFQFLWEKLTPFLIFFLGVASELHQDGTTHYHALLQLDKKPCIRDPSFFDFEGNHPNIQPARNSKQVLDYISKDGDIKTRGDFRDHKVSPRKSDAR
# Description: as §1
# [5] = test system: T5, Rep nickase domain of faba bean necrotic yellows virus
# T5 sequence (residues 1-98, tag not shown): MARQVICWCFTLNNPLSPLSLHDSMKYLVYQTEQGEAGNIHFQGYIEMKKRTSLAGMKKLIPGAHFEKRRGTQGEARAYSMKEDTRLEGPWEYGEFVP
# Description: as §1
# [6] = test system: T6, Rep nickase domain of maize striate mosaic virus
# T6 sequence (residues 1-117, tag not shown): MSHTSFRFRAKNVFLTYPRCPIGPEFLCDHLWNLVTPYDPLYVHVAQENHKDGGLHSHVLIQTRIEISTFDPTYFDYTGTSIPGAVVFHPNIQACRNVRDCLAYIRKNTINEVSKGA
# Description: as §1
# [7] = test system: T7, Rep nickase domain of porcine circovirus 2
# T7 sequence (residues 2-116, tag not shown): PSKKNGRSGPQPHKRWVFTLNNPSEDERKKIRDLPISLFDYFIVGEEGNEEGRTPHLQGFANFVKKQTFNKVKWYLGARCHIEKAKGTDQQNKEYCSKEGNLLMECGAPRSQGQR
# Description: as §1
# [8] = test system: T8, Rep nickase domain of tomato golden mosaic virus
# T8 sequence (residues 1-124, tag not shown): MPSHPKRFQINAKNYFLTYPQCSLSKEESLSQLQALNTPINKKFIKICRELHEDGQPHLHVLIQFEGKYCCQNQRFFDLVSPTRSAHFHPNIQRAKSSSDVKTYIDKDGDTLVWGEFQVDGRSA
# Description: as §1
# [9] = test system: T9, Rep nickase domain of tomato yellow leaf curl virus
# T9 sequence (residues 1-136, tag not shown): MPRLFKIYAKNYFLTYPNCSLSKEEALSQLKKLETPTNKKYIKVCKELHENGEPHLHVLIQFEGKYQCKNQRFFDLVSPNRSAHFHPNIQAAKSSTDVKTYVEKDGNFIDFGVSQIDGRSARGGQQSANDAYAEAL
# Description: as §1
# [10] = test system: T10, Rep nickase domain of wheat dwarf virus
# T10 sequence (residues 1-137, tag not shown): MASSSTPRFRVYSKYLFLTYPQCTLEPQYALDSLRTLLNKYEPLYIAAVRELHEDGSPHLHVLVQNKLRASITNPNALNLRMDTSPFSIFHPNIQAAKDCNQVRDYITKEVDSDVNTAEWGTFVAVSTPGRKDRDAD
# Description: as §1
Sequence,uncleaved DNA left (log2) [1],uncleaved DNA left (log2) [2],uncleaved DNA left (log2) [3],uncleaved DNA left (log2) [4],uncleaved DNA left (log2) [5],uncleaved DNA left (log2) [6],uncleaved DNA left (log2) [7],uncleaved DNA left (log2) [8],uncleaved DNA left (log2) [9],uncleaved DNA left (log2) [10]
GGTCTCA,-0.0235,0.0936,0.303,0.905,-0.176,1.73,0.0691,0.0146,0.0916,0.0904
GTTGGCC,-0.155,-0.0622,0.132,0.878,-0.0839,1.02,-0.000895,-0.145,-0.0867,-0.00171
GTAGTAA,-0.00928,0.0958,0.297,0.828,-0.043,1.74,0.0406,0.061,0.102,0.082
CCCAGCT,-0.152,-0.048,-0.267,-0.911,-0.134,-0.934,-0.059,-0.108,-0.142,-0.0189
CCTATGC,0.101,-0.0779,-0.577,-0.687,-0.114,-1.27,0.0811,-0.0738,0.0536,0.0188
TAATTGC,0.0691,-0.0775,-2.39,-2.48,0.104,-2.08,0.188,-0.217,0.0716,-0.263
TGTGAAT,0.132,0.0215,0.315,0.727,0.0499,1.36,-0.0337,0.0604,0.0636,0.15
CGATTGG,0.055,-0.0231,-0.38,-0.103,0.0093,-0.652,0.0311,-0.0741,-0.0859,0.0291
CTTCCGT,0.0847,-0.101,-0.248,-0.782,0.0494,-0.953,0.0241,-0.0549,-0.104,-0.14
TCCTAGA,-0.138,-0.00281,0.057,-0.0329,-0.0224,-0.754,-0.0434,-0.0493,0.0558,-0.0607
CGGGGCA,0.191,0.155,0.951,1.86,-0.0224,2.22,0.256,0.1,0.109,0.19
CGAGGGT,-0.00883,0.136,0.183,1.23,0.0115,1.68,0.194,0.0564,0.0397,0.0736
GTGTGTG,0.0591,-0.00414,-0.449,-0.374,-0.00228,-0.731,0.0285,-0.0669,-0.113,-0.0234
GGGGAGC,0.283,0.222,1.04,2,0.109,2.39,0.428,0.197,0.17,0.191
CGATATA,-0.0309,-0.0464,-0.353,-0.848,0.00297,-0.381,-0.173,-0.0684,-0.0803,0.117
GAGGAGG,0.105,0.128,0.49,0.985,0.0082,0.872,0.194,0.124,0.102,0.129
GATGTCA,0.142,0.14,0.36,0.518,-0.033,1.14,0.109,0.147,0.142,0.213
ACCTAAG,0.0175,0.0149,-0.641,0.382,0.0138,-0.506,0.204,-0.0881,0.0276,-0.0467
GTGAGTG,0.131,0.0319,-0.00196,0.522,0.11,1.06,0.173,0.125,0.0213,-0.0299
CACGTCC,0.166,-0.00741,-0.0334,-0.273,0.0758,-0.717,0.126,0.0434,0.0976,0.0678

Sequence,uncleaved DNA left (log2) [1],uncleaved DNA left (log2) [2],uncleaved DNA left (log2) [3],uncleaved DNA left (log2) [4],uncleaved DNA left (log2) [5],uncleaved DNA left (log2) [6],uncleaved DNA left (log2) [7],uncleaved DNA left (log2) [8],uncleaved DNA left (log2) [9],uncleaved DNA left (log2) [10]
GTAAATC,0.138,0.251,0.385,0.943,0.17,1.51,0.121,0.189,0.201,0.105
GGTTGTG,0.13,0.0187,-0.643,0.108,-0.0435,-0.525,0.176,0.00345,0.0679,-0.0453
TTCTGTA,-0.17,-0.144,-0.016,-0.767,-0.056,-0.28,-0.463,-0.188,-0.0968,-0.171
ACTAGAG,0.0388,-0.0718,-0.746,-0.104,0.00188,-1.04,0.106,0.0066,-0.0123,-0.101
CGTGTAA,0.0848,0.0977,0.239,0.3,0.113,0.912,0.135,0.141,0.109,0.171
ACAGTGT,0.013,-0.0721,-0.657,-0.955,-0.0119,-0.912,0.0361,-0.0447,-0.0413,-0.123
CCGACGC,-0.0949,-0.13,-0.161,0.0123,-0.157,-0.475,0.104,-0.221,-0.144,-0.213
GGAAGAA,-0.0293,0.0427,0.696,1.52,-0.0344,1.77,0.25,-0.0692,0.0669,0.138
CTAAACC,0.0186,0.0761,0.0632,-0.95,0.123,-0.585,-0.306,0.0479,0.0937,0.15
ATAGGTT,-0.0719,-0.0475,0.109,1.25,-0.14,1.7,-0.0212,0.139,-0.111,0.00628
ACAAGGG,-0.0619,-0.0335,-0.711,-0.327,0.0618,-1.03,0.122,0.00969,0.0782,0.000501
GGGCTTT,0.114,0.0633,0.878,1.89,0.0694,2.28,0.148,-0.0541,0.0986,0.298
CGAACGT,0.029,0.0294,0.0606,0.126,0.00138,0.159,0.00314,-0.0857,-0.112,-0.0184
TGCTCTA,-0.046,-0.0586,-0.0578,-0.712,-0.118,-0.352,-0.388,-0.0774,-0.144,-0.167
CTATCCC,0.0201,0.0466,-0.00734,-0.137,0.0665,-0.319,0.0176,-0.186,0.00118,0.0668
CCCAGCC,-0.0661,-0.159,-0.186,-0.386,-0.0272,-0.952,0.0622,-0.0729,-0.153,-0.0454
GTTTTCC,0.0113,-0.032,0.354,0.776,-0.041,1.57,0.0154,-0.0501,0.0791,0.0885
TGATGCT,-2.32,0.0397,-0.735,-2.2,0.0376,-1.22,-2.28,-0.0131,0.0034,-0.13
TCAGCAC,0.0353,0.0835,-0.0713,-0.615,0.012,-0.916,0.0478,-0.0085,0.141,0.00862
GACCGTT,-0.0718,0.045,0.154,-0.316,-0.0295,0.548,-0.651,0.0947,0.0148,-0.0117

Sequence,uncleaved DNA left (log2) [1],uncleaved DNA left (log2) [2],uncleaved DNA left (log2) [3],uncleaved DNA left (log2) [4],uncleaved DNA left (log2) [5],uncleaved DNA left (log2) [6],uncleaved DNA left (log2) [7],uncleaved DNA left (log2) [8],uncleaved DNA left (log2) [9],uncleaved DNA left (log2) [10]
CGTCACC,0.0237,0.0155,0.0925,-0.0402,0.0149,-0.0902,-0.0545,-0.132,-0.00969,0.0673
TGCCCAT,0.0297,-0.0572,0.257,0.0851,-0.174,0.0425,-0.0391,-0.09,-0.0305,0.115
TGTTTGG,0.0312,0.0526,0.0597,0.0637,0.0286,-0.373,0.0837,0.109,0.035,0.12
CATCCGT,0.0285,-0.0474,-0.454,-1.2,0.0138,-1.12,0.0646,-0.127,-0.0643,-0.185
ACTTTCA,-0.174,-0.0493,-0.385,-1.56,0.00695,-0.745,-0.143,-0.066,-0.0623,0.062
TCAGTTC,-0.104,0.0163,0.0848,-1.01,0.00671,-0.46,-0.0508,-0.0685,0.0572,-0.107
ACTCCTA,-0.0128,-0.0414,-0.288,-1.08,-0.0812,-0.503,-0.205,0.0387,-0.0965,-0.00808
AATGTGC,-0.0343,-0.0945,-0.699,-0.72,-0.0031,-1.23,-0.0258,-0.154,-0.012,-0.0622
CGTCAAC,0.0498,-0.061,0.000365,-0.792,-0.146,-0.164,-0.114,-0.0913,0.0611,0.0663
CAAGTTT,-0.0786,-0.0597,-2.92,-2.72,-0.0183,-0.771,-0.802,-0.888,0.0022,-1.02
CGACCCG,-0.0607,0.0139,-0.39,-0.417,-0.0203,-0.76,-0.0254,-0.0951,-0.0235,-0.0154
TGTGAGT,0.0593,-0.0319,-0.0543,-0.42,0.00206,-0.759,-0.0827,-0.0724,0.0216,-0.0164
CTGCCGC,0.047,-0.111,-0.279,-0.534,0.0396,-0.609,-0.0926,-0.0929,0.00491,-0.132
GTCAACG,-0.0286,-0.0273,0.0831,0.455,-0.0545,0.69,0.177,0.159,0.0831,-0.0562
TCAGCTC,-0.0521,-0.0877,0.159,-0.294,0.00495,-0.194,-0.0302,-0.00821,0.00982,-0.104
TAATCTA,-0.937,0.0397,-2.87,-3.05,-0.00992,-2.22,-1.74,-3.04,-0.224,-2.93
CCCTGTA,-0.103,-0.129,-0.228,-1.23,-0.00144,-0.529,-0.432,-0.065,-0.0303,-0.161
CGAGCAA,-0.0761,-0.0122,-0.0582,0.229,0.108,0.238,-1.22,0.0809,0.117,0.00545
TAGGTTG,0.0317,-0.129,-0.0398,0.0459,0.0535,-0.126,0.0733,0.111,-0.0549,0.0809
CGAGATA,-0.00897,0.0162,-0.281,-0.469,-0.0554,-0.115,-0.353,0.0213,-0.106,-0.0685
